Assay results: paper PMC12136788
The other results are listed elsewhere or left out.

T1: UNK ZnF1-3 (human, UniProt Q9C0B0 31-174)
T1 sequence: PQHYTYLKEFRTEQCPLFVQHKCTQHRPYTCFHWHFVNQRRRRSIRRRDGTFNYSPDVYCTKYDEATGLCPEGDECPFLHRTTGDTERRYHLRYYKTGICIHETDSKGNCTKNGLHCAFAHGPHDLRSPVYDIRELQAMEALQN

B1: chr4:25749455:25749456:-_ENSG00000091490_ENST00000264868|hu_hu|hu_hu_hu_mus_False|48_88 (ssRNA)
RNA: GGGAGUUCUACAGUCCGACGAUCGCACUAUGACCUCUAGAAAAAUCAUUCAAGGAGAAAAAUGUAAACCAAUGUACAAUGUUAUCGCCCUCCCUGCGUGUGGAGUGUUUGUCUCAAGGCUCCUUCUAGCUGCUGGAUUUGGGACAACAGAGGAUUGAGCAUCA
B2: chr1:58468927:58468928:-_ENSMUSG00000026034_ENSMUST00000148330|mus_mus|mus_mus_mus_hu_False|8_78 (ssRNA)
RNA: GGGAGUUCUACAGUCCGACGAUCAAUUACUGAAAAAGAUGUUCAUUACCUUAGCUAGGCCAUGUAUGAACCAAAUUACCCAAACAAAAUAAACAUGGCAAUAUAAAAAUGUUAAGAAUUUACAAAGAUUAAAAGCUUAACUUACAACAGAGGAUUGAGCAUCA
B3: 21559051_21559171_2039_CDS_ENSG00000165804_ENST00000421093|human|control|control (ssRNA)
RNA: GGGAGUUCUACAGUCCGACGAUCCCCCGGCCCAGCACCGCUAGAAGGAGGCCGGGGACUUGAGGCGCCCUCCACCCAGGUCGCAGGCUGCGGAGACGGCUUGGCUCCAGAUUGCGGGGCCGAACCCCGCUGGGAAGGAGGCGGCAACAGAGGAUUGAGCAUCA
B4: chr6:51416610:51416611:-_ENSMUSG00000004980_ENSMUST00000090002|perfect_dup|FALSE|FALSE (ssRNA)
RNA: GGGAGUUCUACAGUCCGACGAUCCCUAUCGGUAAUUAUUUCAAUAGUAUCAAUUUUUCCAUACUCUUCAAAGUAAUCUCUAAGGUGGUGUUCCUCAGUAUCUUCCUUAAUUCCACCAACAAACAGCUUCUUCACAGUCACAUGCAACAGAGGAUUGAGCAUCA
B5: chr15:11913776:11913777:-_ENSMUSG00000022205_ENSMUST00000022816|mus_hu|FALSE|FALSE (ssRNA)
RNA: GGGAGUUCUACAGUCCGACGAUCGCCACAACAGUUAAGAUUGUAUUACUUGAUUUUAUUUUACACUAGGUGGUGGGCAGACAAAGUAAUCCUUAAUAAAGUUGACAAUUAGCUUCACUCAAUAUUUUUAAUAAUGCACAUUAACAACAGAGGAUUGAGCAUCA
B6: 123687827_123694627_1436_3pUTR_ENSG00000051825_ENST00000606320|human|control|control (ssRNA)
RNA: GGGAGUUCUACAGUCCGACGAUCGUGAGAUUCCUCUCAGGUAACUGCUUGUUUUCCCUUUGUUUUUUAUAAUAAAUAUCCUUCAGUGACGGUAGCUUCAUCUCAUUACUAGUAUUAGACUGGUUUGGUGACACAUCUGUGGAACAACAGAGGAUUGAGCAUCA
B7: 114483548_114483668_835_3pUTR_ENSG00000163349_ENST00000369558|human|control|control (ssRNA)
RNA: GGGAGUUCUACAGUCCGACGAUCCAAGAUUUUAAUAGCCACAAUUUCCUUGGUGCUCCUCUUCCAGCACUUAGCCACCUGUCCAAAUGUCCCCCGGCCUAGGAACUCCAAGACUUCAUAGCUAUUGGUCAUAGAGCAAAGGAUCAACAGAGGAUUGAGCAUCA
B8: chr7:7679991:7679992:-_ENSG00000106399_ENST00000396682|hu_hu|hu_hu_hu_mus_False|48_88 (ssRNA)
RNA: GGGAGUUCUACAGUCCGACGAUCUGGGAUGAAUCUUUUCCAGCUUCCCUACGAAGCACACGGGCCGGUCGAUAUACUGUGGUAACAUGCCGGCGUUGACGCGCGCUUUGGGGAGCUGCAUUAUGUCCUCCAUGAUUCUGCCGCCAACAGAGGAUUGAGCAUCA
B9: chr14:89307221:89307222:+_ENSG00000165533_ENST00000346301|hu_mus|hu_hu_hu_mus_False|28_68 (ssRNA)
RNA: GGGAGUUCUACAGUCCGACGAUCUCCUGUUUGGUUAGUGCCAGGGAGCUUCAAAGAUGUGCCAGGGCGUGGAACUUGAGCAAUAGCAUUUUCAUCCAGGAUCAUUUCUGCAAUUCCUUCCUGGUCCACAUCAAUUUCAUCUAUCAACAGAGGAUUGAGCAUCA
B10: chr11:97546686:97546687:+_ENSMUSG00000038437_ENSMUST00000044730|mus_mus|FALSE|FALSE (ssRNA)
RNA: GGGAGUUCUACAGUCCGACGAUCUACGAACUGCCCUUCGUACAAAUAACAUCCGUUAUACAAAGAUACAAGACCCAGGCUAUGCACAAUUCCAGGCUUGGAGGUCGCAGGGGAACACCGUCUCUUGGGCUGAGGAUAUAAAGGCAACAGAGGAUUGAGCAUCA
B11: 142212072_142215241_6041_CDS_ENSG00000175054_ENST00000350721|human|control|control (ssRNA)
RNA: GGGAGUUCUACAGUCCGACGAUCACCCUCAGGUGGGGUUUCAUUUUCAGGAAAACAUAAUUCAACACCUUUUUGAAGAACAAUUAGUGCCUGGUGAACAUCACCCUUGGACCAGAGCCACUUUGCCCUUUCCACGUACAGUUCCAACAGAGGAUUGAGCAUCA
B12: chr4:76703833:76703834:+_ENSG00000138768_ENST00000264904|hu_hu|FALSE|FALSE (ssRNA)
RNA: GGGAGUUCUACAGUCCGACGAUCUUGGAGUUGUUGUUUUUUAAUAAGUUUUGGAGCAAAAUCAAACAAUCUUCAACUACUAUACCUCCAUCACUGUUCCCCUCCUCUGAAAUAAUGUCCAGUAGUCUCUCGAAAGCAUUUUCACAACAGAGGAUUGAGCAUCA
B13: 22898550_23003135_409_CDS_ENSG00000150867_ENST00000376573|human|control|control (ssRNA)
RNA: GGGAGUUCUACAGUCCGACGAUCGUUAAAAAGGUGAUUGUCCACCUUUAUUUUUGAAUAGGCUUUGAAGUCAUCUGGCAUCAACAUAACAGGGAUUUGAACAUGGCUCAGUUCAUUGAUCGAGUGGUUUACCCCCCACAUGAGCAACAGAGGAUUGAGCAUCA
B14: chr8:67243003:67243004:-_ENSMUSG00000031605_ENSMUST00000034017|mus_hu|motif|central (ssRNA)
RNA: GGGAGUUCUACAGUCCGACGAUCGUCACUUGAGAUUAAGCUGCACACUUGUUCGAUGCCAAGAUUGAGAAAUUCUUCACGGAGUACAACAUCUGCAAAAUGUUGCUCUGCAUAGGUGUUGGCCUUGUUCAGAAGGUCGGUACACAACAGAGGAUUGAGCAUCA
B15: chr4:76721835:76721836:+_ENSG00000138768_ENST00000264904|hu_mus|hu_hu_hu_mus_True|58_98 (ssRNA)
RNA: GGGAGUUCUACAGUCCGACGAUCGUUUGGCUGGGGUUCUGAGAUGCCUCUGGAAUAUAACUCAUGUUUGCUAAUAAUCCUAGUUUCCUCUAUGAAAUUCUCUUUGCCAAUCCUCUUCUCUAUUAGUUGCUUUAGUUUCUCUUUCAACAGAGGAUUGAGCAUCA
B16: 15603822_15605163_2305_CDS_ENSMUSG00000021733_ENSMUST00000057015|mouse|control|control (ssRNA)
RNA: GGGAGUUCUACAGUCCGACGAUCCAGAAAGAACGUCGUGAAAAACAAGACGACACACCAGAAGAGCACGUCAGGAACAUAAGGUCCAUGAGGCCCACAAGCUGAUCCCACAAACAUACCAUGGAAGGUCUUACACUCAGAAACCAACAGAGGAUUGAGCAUCA
B17: chr5:93611588:93611589:-_ENSMUSG00000063015_ENSMUST00000058550|mus_mus|FALSE|FALSE (ssRNA)
RNA: GGGAGUUCUACAGUCCGACGAUCUUACUUACUGAAUUACUUUAAAAGAAAAGGUGGGUGGUACUCAAGUGAAGUCAGAAUACAUAGAUCAACAAGCACACAGCUUAGUUAAGUAUUCAACCGAGGCAAGAAAAGGCAAGAGGACAACAGAGGAUUGAGCAUCA
B18: chr1:35650007:35650008:-_ENSG00000116560_ENST00000357214|hu_mus|motif|central (ssRNA)
RNA: GGGAGUUCUACAGUCCGACGAUCCUAACAUCCAUAAAAAGGUAGCUUGCUUACUAAAAUGCCAAGAAUUUAAGUGGUAUCGGAACAAGAAAAGACAAAACCAAACUAGAAUGAAAGCCUAAAUAUCUAAAAUCGGGGUUUUUUCAACAGAGGAUUGAGCAUCA
B19: chr6:89808334:89808335:-_ENSG00000154548_ENST00000452027|hu_hu|FALSE|FALSE (ssRNA)
RNA: GGGAGUUCUACAGUCCGACGAUCUGCUCUUUCUGUUGCUGUUCACCAACUGUUUUUAUGACGAUAACUUCGAGAUCUGGAAUGUGACCGAAAAUGAGAAUGCUUUGCUGUUUGUACUUUAGUUUCAGAAUUGGUAUACCCUUUCAACAGAGGAUUGAGCAUCA
B20: 56000820_56002925_2484_CDS_ENSMUSG00000022601_ENSMUST00000050248|mouse|control|control (ssRNA)
RNA: GGGAGUUCUACAGUCCGACGAUCGCCUCGAACUUCAGGCUUUGGCUGGUGUUUCUUAAGGUGCUUGCUAAGUCCAGAGCCCCUAUGAAAAGACUUUCCACAAAUUGAGCAGAAGUACUUGGACUCUCCUGUGUGAAUACUCAUCAACAGAGGAUUGAGCAUCA
B21: 31017548_31017668_2691_3pUTR_ENSMUSG00000027660_ENSMUST00000118470|mouse|control|control (ssRNA)
RNA: GGGAGUUCUACAGUCCGACGAUCCACUUUUGCUGCCAUACAAAUGAACAGAAUGCCUAGCUACCUUCAUGCAAAUAAGAUGUUAGAAUUCAAUUUUCAAAGCAAGCGACAAACACAAAGCCCUGUCAACCACACACAGGUGUGCAACAGAGGAUUGAGCAUCA
B22: chrX:65951094:65951095:+_ENSMUSG00000000838_ENSMUST00000114657|mus_mus|FALSE|FALSE (ssRNA)
RNA: GGGAGUUCUACAGUCCGACGAUCCUGCCUUGAACUCUCCAGUUGUUUACUGGCUUCUUCAUUUCUCAGUAUAAGAGACAACUUGGUGCGCAGACUUCGAAAGUGCAUGUCAAUCAACAUGUGGGCUCGCUUUGAGGUGACUUCCAACAGAGGAUUGAGCAUCA

These binders were tested against T1, UNK ZnF1-3 (assay: nsRBNS (natural sequence RNA bind-n-seq); RBNS binding buffer (assumed for nsRBNS): 25 mM Tris pH 7.5, 150 mM KCl, 3 mM MgCl2, 0.01% Triton X-100, 500 ug/ml BSA, 20 U/ml SUPERase-In, 4 C; UNK is unkempt and MSI1 is Musashi-1; names of the RNAs are library labels; protein concentration not given here; high values mean tight binding).

Binder | binding signal [enrichment R]
B1 | 1.02
B2 | 0.814
B3 | 0.72
B4 | 1.05
B5 | 1.93
B6 | 0.987
B7 | 0.56
B8 | 0.421
B9 | 0.907
B10 | 1.32
B11 | 1.09
B12 | 1.18
B13 | 0.845
B14 | 0.789
B15 | 0.406
B16 | 1.2
B17 | 1.58
B18 | 1.41
B19 | 0.89
B20 | 0.862
B21 | 1.21
B22 | 0.828
